Assay results taken from ChEMBL document CHEMBL5634115, “Exploring novel anticancer pyrazole benzenesulfonamides featuring tail approach strategy as carbonic anhydrase inhibitors” (Eur J Med Chem, 2023).

What was measured:
Assay in all cases: cells
HL-60(TB) = format: functional; conditions: Homo sapiens, time 48 hrs
K562 = format: functional; conditions: Homo sapiens, time 48 hrs
SR [1] = format: functional; conditions: Homo sapiens, time 48 hrs
HOP-62 [2] = format: functional; conditions: Homo sapiens, time 48 hrs
HOP-92 [3] = format: functional; conditions: Homo sapiens, time 48 hrs
NCI-H23 [4] = format: functional; conditions: Homo sapiens, time 48 hrs
NCI-H322M [5] = format: functional; conditions: Homo sapiens, time 48 hrs
NCI-H460 = format: functional; conditions: Homo sapiens, time 48 hrs
COLO 205 [6] = format: functional; conditions: Homo sapiens, time 48 hrs
HCT-116 = format: functional; conditions: Homo sapiens, time 48 hrs
KM12 [7] = format: functional; conditions: Homo sapiens, time 48 hrs
SF-539 [8] = format: functional; conditions: Homo sapiens, time 48 hrs
LOX IMVI = format: functional; conditions: Homo sapiens, time 48 hrs
Malme-3M = format: functional; conditions: Homo sapiens, time 48 hrs
UACC-62 [9] = format: functional; conditions: Homo sapiens, time 48 hrs
NCI/ADR-RES = format: functional; conditions: Homo sapiens, time 48 hrs
786-0 = format: functional; conditions: Homo sapiens, time 48 hrs
CAKI-1 = format: functional; conditions: Homo sapiens, time 48 hrs
RXF 393 [10] = format: functional; conditions: Homo sapiens, time 48 hrs
RPMI-8226 [11] = format: functional; conditions: Homo sapiens, time 48 hrs
SR [12] = format: functional; conditions: Homo sapiens, time 48 hrs; remark: listed apart in the source
EKVX = format: functional; conditions: Homo sapiens, time 48 hrs
HOP-62 [13] = format: functional; conditions: Homo sapiens, time 48 hrs; remark: listed apart in the source
NCI-H23 [14] = format: functional; conditions: Homo sapiens, time 48 hrs; remark: listed apart in the source
NCI-H322M [15] = format: functional; conditions: Homo sapiens, time 48 hrs; remark: listed apart in the source
NCI-H522 = format: functional; conditions: Homo sapiens, time 48 hrs
KM12 [16] = format: functional; conditions: Homo sapiens, time 48 hrs; remark: listed apart in the source
SF-268 = format: functional; conditions: Homo sapiens, time 48 hrs
SF-295 = format: functional; conditions: Homo sapiens, time 48 hrs
SF-539 [17] = format: functional; conditions: Homo sapiens, time 48 hrs; remark: listed apart in the source
SK-MEL-5 = format: functional; conditions: Homo sapiens, time 48 hrs
UACC-62 [18] = format: functional; conditions: Homo sapiens, time 48 hrs; remark: listed apart in the source
OVCAR-4 [19] = format: functional; conditions: Homo sapiens, time 48 hrs
A498 = format: functional; conditions: Homo sapiens, time 48 hrs
ACHN = format: functional; conditions: Homo sapiens, time 48 hrs
SN12C = format: functional; conditions: Homo sapiens, time 48 hrs
TK-10 = format: functional; conditions: Homo sapiens, time 48 hrs
UO-31 = format: functional; conditions: Homo sapiens, time 48 hrs
DU-145 [20] = format: functional; conditions: Homo sapiens, time 48 hrs
MCF7 = format: functional; conditions: Homo sapiens, time 48 hrs
MDA-MB-231 [21] = format: functional; conditions: Homo sapiens, time 48 hrs
Hs-578T = format: functional; conditions: Homo sapiens, time 48 hrs
RPMI-8226 [22] = conditions: Homo sapiens, RPMI-8226, 48 h, read-out: LC50
A549 = conditions: Homo sapiens, A549, 48 h, read-out: LC50
HOP-92 [23] = conditions: Homo sapiens, HOP-92, 48 h, read-out: LC50
COLO 205 [24] = conditions: Homo sapiens, COLO 205, 48 h, read-out: LC50
HT-29 = conditions: Homo sapiens, HT-29, 48 h, read-out: LC50
SNB-19 = conditions: Homo sapiens, SNB-19, 48 h, read-out: LC50
SNB-75 = conditions: Homo sapiens, SNB-75, 48 h, read-out: LC50
M14 = conditions: Homo sapiens, M14, 48 h, read-out: LC50
UACC-257 = conditions: Homo sapiens, UACC-257, 48 h, read-out: LC50
UACC-62 [25] = conditions: Homo sapiens, UACC-62, 48 h, read-out: LC50
OVCAR-3 = conditions: Homo sapiens, OVCAR-3, 48 h, read-out: LC50
OVCAR-4 [26] = conditions: Homo sapiens, OVCAR-4, 48 h, read-out: LC50
OVCAR-5 = conditions: Homo sapiens, OVCAR-5, 48 h, read-out: LC50
RXF 393 [27] = conditions: Homo sapiens, RXF 393, 48 h, read-out: LC50
PC-3 = conditions: Homo sapiens, PC-3, 48 h, read-out: LC50
DU-145 [28] = conditions: Homo sapiens, DU-145, 48 h, read-out: LC50
MDA-MB-231 [29] = conditions: Homo sapiens, MDA-MB-231, 48 h, read-out: LC50
T47D = conditions: Homo sapiens, 48 h, read-out: LC50
MDA-MB-468 = conditions: Homo sapiens, MDA-MB-468, 48 h, read-out: LC50

Question: NS(=O)(=O)c1ccc(-n2cc(/C=N/Nc3ccc(C(=O)O)cc3)c(-c3ccccc3)n2)cc1 was tested. Which GI50 (HL-60(TB)) did it give?
Answer: 1680 nM

Question: And the GI50 (K562)?
Answer: 2960 nM

Question: What about the GI50 (SR [1]) of the same compound?
Answer: 2540 nM

Question: And the GI50 (HOP-62 [2])?
Answer: 5.75 µM

Question: What about the GI50 (HOP-92 [3]) of the same compound?
Answer: 3290 nM

Question: And the GI50 (NCI-H23 [4])?
Answer: 3390 nM

Question: And the GI50 (NCI-H322M [5])?
Answer: 4.31 µM

Question: And the GI50 (NCI-H460)?
Answer: 2460 nM

Question: What about the GI50 (COLO 205 [6]) of the same compound?
Answer: 11.5 µM

Question: And the GI50 (HCT-116)?
Answer: 3110 nM

Question: What about the GI50 (KM12 [7]) of the same compound?
Answer: 1840 nM

Question: What about the GI50 (SF-539 [8]) of the same compound?
Answer: 1830 nM

Question: What about the GI50 (LOX IMVI) of the same compound?
Answer: 1660 nM

Question: What about the GI50 (Malme-3M) of the same compound?
Answer: 4.18 µM

Question: And the GI50 (UACC-62 [9])?
Answer: 4.99 µM

Question: What about the GI50 (NCI/ADR-RES) of the same compound?
Answer: 2440 nM

Question: And the GI50 (786-0)?
Answer: 2690 nM

Question: And the GI50 (CAKI-1)?
Answer: 2480 nM

Question: And the GI50 (RXF 393 [10])?
Answer: 2090 nM

Question: And the TGI (RPMI-8226 [11])?
Answer: 16.1 µM

Question: And the TGI (SR [12])?
Answer: 7.31 µM

Question: What about the TGI (EKVX) of the same compound?
Answer: 58.3 µM

Question: And the TGI (HOP-62 [13])?
Answer: 30 µM

Question: What about the TGI (NCI-H23 [14]) of the same compound?
Answer: 12.5 µM

Question: And the TGI (NCI-H322M [15])?
Answer: 36.6 µM

Question: What about the TGI (NCI-H522) of the same compound?
Answer: 4.39 µM

Question: And the TGI (KM12 [16])?
Answer: 3.75 µM

Question: And the TGI (SF-268)?
Answer: 15 µM

Question: And the TGI (SF-295)?
Answer: 15.6 µM

Question: And the TGI (SF-539 [17])?
Answer: 4.01 µM

Question: And the TGI (SK-MEL-5)?
Answer: 4.07 µM

Question: What about the TGI (UACC-62 [18]) of the same compound?
Answer: 18 µM

Question: What about the TGI (OVCAR-4 [19]) of the same compound?
Answer: 47.2 µM

Question: What about the TGI (A498) of the same compound?
Answer: 51.3 µM

Question: What about the TGI (ACHN) of the same compound?
Answer: 21.9 µM

Question: What about the TGI (SN12C) of the same compound?
Answer: 45.6 µM

Question: What about the TGI (TK-10) of the same compound?
Answer: 71.7 µM

Question: And the TGI (UO-31)?
Answer: 22 µM

Question: And the TGI (DU-145 [20])?
Answer: 21.6 µM

Question: What about the TGI (MCF7) of the same compound?
Answer: 4.93 µM

Question: And the TGI (MDA-MB-231 [21])?
Answer: 13.1 µM

Question: And the TGI (Hs-578T)?
Answer: 8.8 µM

Question: What about the CC50 (RPMI-8226 [22]) of the same compound?
Answer: > 100 µM

Question: What about the CC50 (A549) of the same compound?
Answer: > 100 µM

Question: And the CC50 (HOP-92 [23])?
Answer: > 100 µM

Question: And the CC50 (COLO 205 [24])?
Answer: > 100 µM

Question: What about the CC50 (HT-29) of the same compound?
Answer: 53.2 µM

Question: And the CC50 (SNB-19)?
Answer: 70.8 µM

Question: What about the CC50 (SNB-75) of the same compound?
Answer: > 100 µM

Question: What about the CC50 (M14) of the same compound?
Answer: 21.7 µM

Question: What about the CC50 (UACC-257) of the same compound?
Answer: 69.7 µM

Question: And the CC50 (UACC-62 [25])?
Answer: 45.1 µM

Question: And the CC50 (OVCAR-3)?
Answer: 23.8 µM

Question: And the CC50 (OVCAR-4 [26])?
Answer: > 100 µM

Question: And the CC50 (OVCAR-5)?
Answer: 56.5 µM

Question: And the CC50 (RXF 393 [27])?
Answer: 9.62 µM

Question: What about the CC50 (PC-3) of the same compound?
Answer: > 100 µM

Question: And the CC50 (DU-145 [28])?
Answer: > 100 µM

Question: And the CC50 (MDA-MB-231 [29])?
Answer: > 100 µM

Question: What about the CC50 (T47D) of the same compound?
Answer: > 100 µM

Question: What about the CC50 (MDA-MB-468) of the same compound?
Answer: 48.5 µM

Question: What does the source list for CCOC(=O)c1ccc(N/N=C/c2cn(-c3ccc(S(N)(=O)=O)cc3)nc2-c2ccccc2)cc1?
Answer: GI50 (HL-60(TB)): 1950 nM; GI50 (K562): 2280 nM; GI50 (SR [1]): 2000 nM; GI50 (HOP-62 [2]): 3.25 µM; GI50 (HOP-92 [3]): 2540 nM; GI50 (NCI-H23 [4]): 2260 nM; GI50 (NCI-H322M [5]): 2.83 µM; GI50 (NCI-H460): 2230 nM; GI50 (COLO 205 [6]): 3.16 µM; GI50 (HCT-116): 2580 nM; GI50 (KM12 [7]): 1880 nM; GI50 (SF-539 [8]): 1730 nM; GI50 (LOX IMVI): 1600 nM; GI50 (Malme-3M): 1.97 µM; GI50 (UACC-62 [9]): 2.65 µM; GI50 (NCI/ADR-RES): 2110 nM; GI50 (786-0): 2180 nM; GI50 (CAKI-1): 1920 nM; GI50 (RXF 393 [10]): 1770 nM; TGI (RPMI-8226 [11]): 7.86 µM; TGI (SR [12]): 4.84 µM; TGI (EKVX): 27.1 µM; TGI (HOP-62 [13]): 12.4 µM; TGI (NCI-H23 [14]): 5.49 µM; TGI (NCI-H322M [15]): 17.5 µM; TGI (NCI-H522): 4.54 µM; TGI (KM12 [16]): 3.82 µM; TGI (SF-268): 8.14 µM; TGI (SF-295): 5.03 µM; TGI (SF-539 [17]): 3.49 µM; TGI (SK-MEL-5): 3.01 µM; TGI (UACC-62 [18]): 9.22 µM; TGI (OVCAR-4 [19]): 47.6 µM; TGI (A498): 5.29 µM; TGI (ACHN): 20.1 µM; TGI (SN12C): 32.6 µM; TGI (TK-10): 76.7 µM; TGI (UO-31): 11.2 µM; TGI (DU-145 [20]): 9.38 µM; TGI (MCF7): 5.62 µM; TGI (MDA-MB-231 [21]): 5.5 µM; TGI (Hs-578T): 6.06 µM; CC50 (RPMI-8226 [22]): > 100 µM; CC50 (A549): > 100 µM; CC50 (HOP-92 [23]): > 100 µM; CC50 (COLO 205 [24]): > 100 µM; CC50 (HT-29): 32.2 µM; CC50 (SNB-19): > 100 µM; CC50 (SNB-75): > 100 µM; CC50 (M14): 37.6 µM; CC50 (UACC-257): 60.8 µM; CC50 (UACC-62 [25]): 38.3 µM; CC50 (OVCAR-3): > 100 µM; CC50 (OVCAR-4 [26]): > 100 µM; CC50 (OVCAR-5): 49.1 µM; CC50 (RXF 393 [27]): 7.61 µM; CC50 (PC-3): > 100 µM; CC50 (DU-145 [28]): > 100 µM; CC50 (MDA-MB-231 [29]): 50.2 µM; CC50 (T47D): > 100 µM; CC50 (MDA-MB-468): 8.16 µM
